Reference: PubChem BioAssay AID588591 (National Center for Advancing Translational Sciences (NCATS), 2011)
Several values for one entry are separate records, joined by “and”; a condition that tells them apart may be missing. Equal entries are not always repeated. The campaign covered roughly 390,000 compounds. About 4,700 (1.2%) were called active. The shares of active, inactive and inconclusive entries below differ from those in the screen. Calls follow the shape of the dose curve; as a rule, active = well fitted inhibition curve with a large enough effect; inconclusive = small, poorly fitted or top-dose-only effect, or another doubt; inactive = no such curve, though single readings can be large or run the other way. Where the call is inconclusive, the potency comes from a doubtful curve fit. Some structures have more than one record in an assay (separate samples or runs), and their calls can disagree.

The molecules below were run against DNA polymerase eta (Homo sapiens) (UniProt Q9Y253) (assay: qHTS for Inhibitors of Polymerase Eta). Details: recombinant Pol eta, fluorescent DNA replication assay; series mostly up to 114 µM.
How it was run: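 Fluorescent replication assay: 50 nM final substrate added after a 15 min room-temperature compound preincubation with 10 nM enzyme. Signal taken at 0 min and again at 10 min.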
Potency is read from the fitted curve at half-maximal effect; tags tell the direction and shape of the fitted curve.

Sequence of UniProt Q9Y253 (Q9Y253 whole entry, looked up): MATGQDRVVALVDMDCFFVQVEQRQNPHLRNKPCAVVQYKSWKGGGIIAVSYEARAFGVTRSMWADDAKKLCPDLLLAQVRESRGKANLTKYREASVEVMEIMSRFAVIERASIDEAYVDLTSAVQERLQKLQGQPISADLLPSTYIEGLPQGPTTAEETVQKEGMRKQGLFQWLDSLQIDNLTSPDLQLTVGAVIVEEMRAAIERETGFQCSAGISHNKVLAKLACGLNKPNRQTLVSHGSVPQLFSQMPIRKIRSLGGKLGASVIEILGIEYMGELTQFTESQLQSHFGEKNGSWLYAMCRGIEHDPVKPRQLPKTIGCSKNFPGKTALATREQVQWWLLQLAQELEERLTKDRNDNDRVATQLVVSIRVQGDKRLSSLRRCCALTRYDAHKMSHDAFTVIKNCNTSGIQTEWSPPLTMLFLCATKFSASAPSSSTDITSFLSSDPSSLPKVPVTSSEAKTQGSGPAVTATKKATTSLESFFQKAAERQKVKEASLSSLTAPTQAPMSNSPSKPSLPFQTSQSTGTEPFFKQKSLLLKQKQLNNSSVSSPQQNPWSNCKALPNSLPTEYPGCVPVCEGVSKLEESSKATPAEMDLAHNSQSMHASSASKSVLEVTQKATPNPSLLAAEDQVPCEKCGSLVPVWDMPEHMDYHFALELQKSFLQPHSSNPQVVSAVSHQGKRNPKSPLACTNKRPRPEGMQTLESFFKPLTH

SMILES	Potency
COc1cccc(/C=C2/SC(=O)N(CC(=O)N3CCc4ccccc4C3)C2=O)c1OCC(=O)O	inconclusive: 39.8 µM [inhibitor, partial curve, poor fit]
Cc1ccccc1C(=O)Nc1ccc2c(c1)CCCN2C(=O)c1cccs1	inconclusive: 89.1 µM [inhibitor, partial curve, poor fit]
CC(=O)c1cccc(NC(=O)COC(=O)c2ccc(S(C)(=O)=O)c([N+](=O)[O-])c2)c1	active: 79.4 µM
COc1cccc(CNC(=O)CN2C(=O)NC(Cc3ccccc3)(c3ccccc3)C2=O)c1 (stereo not given)	inconclusive: 89.1 µM [inhibitor, partial curve, poor fit]
Cc1nnc(SCC2=C(C(=O)O)N3C(=O)C(NC(=O)Cc4ccccc4)C3SC2)s1 (stereo not given)	active: 22.4 µM
O=C(COc1ccccc1)NC1C(=O)N2C(C(=O)O)=C(Cl)CSC12 (stereo not given)	inconclusive: 50.1 µM [inhibitor, partial curve]
CC1CCCCN1CC(=O)Nc1sc2c(c1C#N)CCC2 (stereo not given)	inconclusive: 15.8 µM [inhibitor, full curve, poor fit]
O=C(CSc1ccc2c(c1)OCCO2)NCc1ccco1	inconclusive: 17.8 µM [inhibitor, partial curve, poor fit]
COc1cc(NC(=S)NC(=O)CC(C)C)ccc1NC(=O)c1cc2ccccc2o1	inconclusive: 28.2 µM [inhibitor, single point]
COc1ccc([N+](=O)[O-])cc1NC(=O)CCS(=O)(=O)c1ccc(Br)cc1	active: 50.1 µM
O=C(O)c1csc(-c2ccccc2)n1	inconclusive: 89.1 µM [inhibitor, partial curve, poor fit]
COc1ccc(C(=O)NCC(=O)OCC(=O)c2ccccc2Br)cc1OC	inactive
Cc1ccc(N=Cc2cc3c(cc2[N+](=O)[O-])OCO3)cc1[N+](=O)[O-]	inconclusive: 50.1 µM [inhibitor, partial curve, poor fit]
COc1ccc(-c2cc3ncnc(Cl)c3s2)cc1	inconclusive: 63.1 µM [inhibitor, partial curve, poor fit]
CC(C)(C)C1CCc2c(sc(NC(=O)CCC(=O)O)c2C(=O)Nc2ccccc2C(F)(F)F)C1 (stereo not given)	inconclusive: 79.4 µM [inhibitor, partial curve]
NS(=O)(=O)c1ccc(CCNC(=O)c2ccc3nc(Cc4ccccc4)oc3c2)cc1	inactive
COc1ccc(C(=O)/C=C/Nc2ccc(S(=O)(=O)Nc3onc(C)c3C)cc2)cc1	inconclusive: 35.5 µM [inhibitor, partial curve, poor fit]
COc1ccc(CCNC(=O)C2CCN(c3ncnc4c3nc3n4CCCCC3)CC2)c(OC)c1	inactive
O=C(Cc1ccc(F)cc1)NCc1nc2cccnc2n1Cc1ccc(F)cc1	inactive
Cc1ccccc1OCC(=O)Nc1ccc(OCc2cc(=O)n3ccsc3n2)cc1	inconclusive: 100 µM [inhibitor, partial curve, poor fit]
CC1=CN2C(=N)/C(=C/c3ccc(Sc4ccc(C)cc4)o3)C(=O)N=C2S1	inconclusive: 56.2 µM [inhibitor, partial curve, poor fit]
O=C(O)c1cc(-c2ccco2)nc2ccc(Br)cc12	inactive and active: 2.51 µM

SMILES	Potency
CCC(NS(=O)(=O)c1cnn(CC)c1)c1ccccc1 (stereo not given)	inconclusive: 89.1 µM [inhibitor, partial curve, poor fit]
Cc1cc(C)cc(-n2nnc(-c3nsc(NC(=O)c4ccccc4Cl)n3)c2C)c1	inconclusive: 79.4 µM [inhibitor, single point]
Cc1ccccc1NS(=O)(=O)c1cccc(C(=O)Nc2cccc(C(=O)O)c2)c1	inactive
CC1CCC/C(=C\Nc2ccc(C(=O)O)c(O)c2)C1=O (stereo not given)	inconclusive: 15.8 µM [inhibitor, full curve, poor fit]
O=C(CCN1C(=O)/C(=C/c2ccco2)SC1=S)Nc1ccc(O)cc1C(=O)O	active: 5.62 µM
COc1cc2c(-c3ccc(O)cc3)nc3c(c(C)nn3-c3ccccc3)c2cc1OC	inconclusive: 10 µM [inhibitor, full curve, poor fit]
COc1ccc2cc3c(N)c(C(=O)NCc4ccco4)sc3nc2c1	inconclusive: 12.6 µM [inhibitor, partial curve, poor fit]
CCCCOC(=O)c1[nH]c2c(c1C)C(=O)CC(c1cc(OC)c(OC)c(OC)c1)C2 (stereo not given)	inconclusive: 89.1 µM [inhibitor, partial curve, poor fit]
CCCCOc1ccccc1C(=O)Nc1nonc1-c1ccccc1	inactive
COC(=O)C1(Cc2ccc(O)cc2)OC(=O)C(O)=C1c1ccc(O)cc1 (stereo not given)	active: 11.2 µM
Fc1ccccc1CNc1ccc(Cl)c(Cl)c1	inconclusive: 89.1 µM [inhibitor, partial curve, poor fit]
CCCn1ccc2c(OCC(=O)Nc3ccc(NC(C)=O)cc3)cccc2c1=O	inconclusive: 20 µM [inhibitor, partial curve]
S=C1SCN(Cc2ccccc2)CN1Cc1ccco1	inconclusive: 50.1 µM [inhibitor, partial curve, poor fit]
Clc1ccc(N=c2ssnc2Cl)nc1	inactive
CN(C)c1ccc(/C=N/Nc2ccc(-n3ccnc3)nn2)cc1	inconclusive: 14.1 µM [inhibitor, partial curve, poor fit]
COc1cc(/C=C2\SC(=Nc3ccc(Cl)c(C(=O)O)c3)NC2=O)c(Br)c(Br)c1O	active: 17.8 µM
O=C(N/N=C/c1ccc(OC(=O)c2ccc3c(c2)OCO3)cc1)c1cncc(Br)c1	inconclusive: 2.51 µM [inhibitor, full curve, poor fit]
Cc1occc1C(=O)N/N=C/c1ccc(OCc2ccccc2)cc1	inactive
CCSc1nc(-c2ccc(Cl)cc2)nc2c1Cc1c(CO)cnc(C)c1O2	inactive
CCOc1ccccc1OCC(=O)NCc1ccco1	active: 79.4 µM
COc1ccc2oc(C)c(C(=O)c3ccc(C)cc3)c2c1	inactive
COc1cccc(OC(=O)c2ccccc2)c1OC(=O)c1ccccc1	inconclusive: 50.1 µM [inhibitor, partial curve, poor fit]

SMILES	Potency
O=C(NCc1ccc(Cl)cc1)c1ccc2c(c1)NC(=O)C(CS(=O)(=O)Cc1ccccc1Cl)N2 (stereo not given)	inconclusive: 100 µM [inhibitor, single point]
O=C(O)C1C2C=CC3(CN(Cc4ccco4)C(=O)C13)O2 (stereo not given)	inconclusive: 39.8 µM [inhibitor, partial curve, poor fit]
Cc1cccc(C)c1Nc1nnc(SCC(=O)Nc2sccc2C#N)s1	inconclusive: 56.2 µM [inhibitor, partial curve, poor fit]
O=C(Nc1c(C(=O)Nc2cccc(C(F)(F)F)c2)oc2ccccc12)c1cc(=O)c2ccccc2o1	inactive
O=C(O)CCn1cnc2onc(-c3ccccc3Cl)c2c1=O	inactive
O=C(Nc1cc(Cl)cc(Cl)c1)c1cnn2cccnc12	inconclusive: 7.08 µM [inhibitor, partial curve, poor fit]
COc1cc(/C=C2\C(=N)N3N=CSC3=NC2=O)cc(Br)c1OC(=O)c1ccco1	active: 79.4 µM
O=[N+]([O-])c1ccc(N2CCN(c3ccc(O)cc3)CC2)c(Cl)c1	inconclusive: 79.4 µM [inhibitor, partial curve, poor fit]
CCOc1ccc(Br)cc1C(=O)N/N=C/c1cccnc1	inconclusive: 28.2 µM [inhibitor, partial curve]
Nc1ccc(Br)c2c1C(=O)c1ccccc1C2=O	inconclusive: 28.2 µM [inhibitor, partial curve, poor fit]
Fc1ccccc1CNc1ncnc2sccc12	inconclusive: 3.55 µM [inhibitor, partial curve, poor fit]
O=C(CSc1nnc2ccc(-c3ccco3)nn12)Nc1ccccc1F	inconclusive: 25.1 µM [inhibitor, partial curve]
O=C(CS(=O)CC(=O)Nc1cnc2ccccc2c1)Nc1ccc(Cl)cc1 (stereo not given)	inconclusive: 56.2 µM [inhibitor, partial curve, poor fit]
Cc1c(N2C(=O)/C(=C\c3ccc(N(C)C)cc3)N(C)C2=S)c(=O)n(-c2ccccc2)n1C	inconclusive: 56.2 µM [inhibitor, partial curve, poor fit]
COCc1cc(C)nc(OCC(=O)N/N=C/c2ccc(-c3cc([N+](=O)[O-])ccc3C)o2)c1C#N	inconclusive: 28.2 µM [inhibitor, partial curve, poor fit]
CC1CCN(C(=O)CCn2c(=O)oc3ccc(Cl)cc32)CC1	inactive
COc1ccc(C(=O)COC(=O)CCS(=O)(=O)c2ccc(C)cc2)c(OC)c1	inconclusive: 2.82 µM [inhibitor, partial curve, poor fit]
O=C(Nc1ccc2nc(-c3ccco3)c(-c3ccco3)nc2c1)N1CCCCCC1	active: 10 µM
O=C(CCCc1ccccc1)NC1CC1	inconclusive: 31.6 µM [inhibitor, single point]
O=C(COC(=O)c1c(Cl)cccc1Cl)NC1CCCCCCC1	inconclusive: 89.1 µM [inhibitor, partial curve]
CC(C)CC(c1nnnn1C(C)(C)C)N1CCN(Cc2ccccc2)CC1 (stereo not given)	inconclusive: 89.1 µM [inhibitor, partial curve, poor fit]
